Experimental data from article PMC3961690.
Some values that stand alone complete this part of the results.

What was measured:
[1] = molecular target: Asp455 (UniProt position 474, KPVMLDLYADW); assay: NMR; details: 298 K, 1 mM protein, isolated domain, folded
[2] = molecular target: Cys461 (UniProt position 480, LYADWCVACKE); assay: NMR; details: 298 K, not stated (pH adjusted with 0.1 M DCl or NaOD), 1 mM protein, reduced (Cys-461/Cys-464 dithiol), isolated domain, folded

“DsbD C-terminal domain, Q488A variant (Q488A-cDsbD) (Escherichia coli; Q488A)” gave a pKa ([1]; not stated, reduced (dithiol), higher pKa of double sigmoidal fit) of 10.4, a pKa ([1]; not stated, reduced (dithiol), lower pKa of double sigmoidal fit) of 7.3 and a pKa ([2]; pK1 from 13Cβ chemical shift) of 7.7. The pKa ([2]; pK2 from 13Cβ chemical shift) was 10.5 and the pKa ([2]; pK2 from Hβ1 chemical shift) was 10.0.
Substance “DsbD C-terminal domain, Q488K variant (Q488K-cDsbD) (Escherichia coli; Q488K)” has a pKa ([1]; not stated (pH adjusted with 0.1 M DCl or NaOD), oxidised (Cys-461-Cys-464 disulfide), Cys-461 13Cβ reporter) of 8.2, a pKa ([1]; not stated (pH adjusted with 0.1 M DCl or NaOD), oxidised (Cys-461-Cys-464 disulfide), Cys-461 Hβ2 reporter) of 8.5 and a pKa ([1]; not stated (pH adjusted with 0.1 M DCl or NaOD), oxidised (Cys-461-Cys-464 disulfide), Cys-464 Hβ1 reporter) of 8.0. The pKa ([1]; not stated (pH adjusted with 0.1 M DCl or NaOD), oxidised (Cys-461-Cys-464 disulfide), Cys-464 Hβ2 reporter) was 8.1, the pKa ([1]; not stated (pH adjusted with 0.1 M DCl or NaOD), reduced (Cys-461/Cys-464 dithiol), Cys-461 13Cβ reporter) was 8.1 and the pKa ([1]; not stated (pH adjusted with 0.1 M DCl or NaOD), reduced (Cys-461/Cys-464 dithiol), Cys-461 Hβ2 reporter) was 7.9. The pKa ([1]; not stated (pH adjusted with 0.1 M DCl or NaOD), reduced (Cys-461/Cys-464 dithiol), Cys-464 13Cβ reporter) was 7.6 and the pKa ([1]; not stated (pH adjusted with 0.1 M DCl or NaOD), reduced (Cys-461/Cys-464 dithiol), Cys-464 Hβ2 reporter) was 7.0.
